Test results: the supplement of paper PMC3334620
In all, about 33,000 sequences were measured (“E-score (-0.5 to 0.5)”: median about -0.017, highest 2% from about 0.3 on). The list shows a part of the results.

biological target: T1, Sut1 (UniProt P53032); assay: PBM E-score (8-mer binding enrichment) (E-score (-0.5 to 0.5)); higher = stronger / more preferred TF binding; most listed sequences are background and not binding sites; details: protein concentration: 200 nM; construct: GST-full length
T1 sequence: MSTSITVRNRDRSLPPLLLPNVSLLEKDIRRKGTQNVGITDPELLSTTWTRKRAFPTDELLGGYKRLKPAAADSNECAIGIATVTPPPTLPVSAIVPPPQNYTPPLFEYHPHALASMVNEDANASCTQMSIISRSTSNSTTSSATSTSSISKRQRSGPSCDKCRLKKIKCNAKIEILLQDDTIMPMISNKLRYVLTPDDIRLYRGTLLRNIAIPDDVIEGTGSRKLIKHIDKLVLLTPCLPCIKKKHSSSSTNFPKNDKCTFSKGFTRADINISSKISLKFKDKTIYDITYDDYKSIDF
Method in brief: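 Universal all-10-mer Agilent arrays, double-stranded by primer extension on fresh or once-stripped slides, were probed with about 100-200 nM GST-tagged yeast transcription factors made by PURExpress. Fluorescent anti-GST detected bound protein, and masliner normalised the scans. E-scores from the Universal PBM Analysis Suite were given to each ungapped eight-base word pooled with its reverse complement.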

Sequence | PBM E-score
GGAGAATA | 0.118
GCCTCGAC | -0.203
ACGTAAGG | -0.169
AGTGGGAG | -0.0458
AGTGTCGC | -0.0929
ACAACCTG | -0.0712
ATAGATAT | 0.23
ATACACCA | 0.0476
AGATCTAG | -0.146
AGCATACT | -0.0279
ATTTGATA | 0.22
CTCGTACC | -0.178
CCATACTA | 0.105
TCTACGAA | -0.149
TCTGCAGA | -0.131
CGACTAAG | -0.125
GGCACACC | -0.275
ATTTTCCC | -0.105
GTATTTAA | 0.227
CAGGATGC | -0.171
GAAAAGAA | 0.12
AGCTGTGC | -0.246
AAGCATGC | -0.16
AGGGCCGA | -0.0391
ACGCGGCA | -0.177

Sequence | PBM E-score
CGGTAGCA | -0.0839
AAGTAAAT | 0.28
ATGGACAC | 0.0316
CTGCTTTC | 0.0261
AGGGCTGA | -0.161
AGGTAGCG | -0.173
TACACATA | 0.184
GAGGATAA | -0.13
ACTGAACA | 0.0273
ACGCCGGC | 0.154
GCATATGC | -0.184
AGCAAGAG | -0.153
AGAATGTA | 0.0887
GGTTGCAA | 0.00099
CCCGAACA | 0.0735
AACTGCTT | 0.0271
CGGAAATA | 0.337
ATTGGTTA | 0.121
AATAGCCC | -0.134
TACGCGGA | 0.187
ACGCCGCG | -0.184
AAGTACCT | -0.0797
CGAAATTC | 0.183
ATGCTGGC | -0.182
ACGATCAC | 0.0166

Sequence | PBM E-score
CGTCCCGA | -0.181
CCCTAGAA | -0.0151
ACACGTAT | 0.00676
CAGAACGG | 0.0607
GACTATAA | 0.205
AACCACCC | -0.281
ACTGATCC | -0.157
AATCACAG | -0.0326
CAATTACG | 0.0305
AAACAAAT | 0.262
GCAAAACC | -0.0114
CTGAAACC | -0.0547
CTACCGAC | 0.0163
ATTTTGAC | 0.142
AAAACGGT | -0.0604
GCCCAGCC | -0.184
GACACTAC | 0.0616
ATACTCGC | -0.0142
CTAGAATA | 0.226
GATCACGA | -0.142
CCCTACGG | -0.239
CGCGTAGC | -0.162
CTAACACC | 0.0191
GGCGTAGA | -0.0873
CGAGCTCG | -0.0197

Sequence | PBM E-score
AATTCGCA | 0.286
GGGCTCAA | -0.181
GGATCCAC | -0.103
GATGCCGC | -0.0952
CAGAGGTA | -0.0086
GTCTTCAA | 0.00426
AAACGGCA | -0.0663
ACTAGCGA | -0.00608
ATACATCA | 0.0333
CAGACATA | -0.0707
CCGCGGAG | 0.308
CCTTCAGC | -0.182
TCCAAGGA | -0.0121
AGTCTAGA | 0.0548
ATTGAGTG | 0.0241
GATCAGGC | -0.115
CTTCAGTC | 0.0454
TCTTCGCA | 0.0465
AACGAAGG | -0.189
TACTCCAA | -0.0372
ACGTCAAC | 0.0596
GATCGACA | -0.0654
ACCCTCCC | -0.038
GTCGCAGA | -0.015
AATCTTGT | 0.152

Sequence | PBM E-score
CGTGCTAA | 0.00998
CCATTTGA | 0.0313
AAATGTAG | 0.0326
TACAATCA | 0.167
AAGAGATA | -0.0293
ATTCGTAC | 0.154
GATGTTCC | -0.0774
ACAGCTCC | 0.166
GCTAATCA | 0.0306
AGCGTTGG | -0.151
GCTGCCCA | -0.297
AAGATGGA | -0.116
ATTCGCTC | 0.027
CGAAGTCA | -0.081
TATTGCCA | -0.00908
GCGCTGGA | -0.212
GAGCACTA | -0.086
ATCGCAAA | 0.0837
AGCCGCAT | 0.00388
ATGAAAAG | -0.0364
ACATACTA | 0.15
CTCTAGAC | -0.0305
AACCACCA | -0.0634
AACGCTTC | 0.0816
ACCGCGGG | 0.115

Sequence | PBM E-score
CTAAAGAA | 0.264
ATATGACG | 0.179
CATCTCGG | 0.234
AGAGCCAG | -0.418
AAATCGTC | 0.0465
ACCACAGA | -0.0524
CACCATTA | 0.196
ACTGCTTA | 0.0551
CCTTGATA | 0.0572
ATTGCACC | -0.0615
GGCGCTTA | -0.359
ATCTAGCA | -0.008
ATATTAAT | 0.253
AGCGCTTA | -0.0126
ATGTGAAC | 0.0599
ACGACAAC | 0.0842
TAAATTAA | 0.283
GCCTTGGA | -0.0418
AACTCTCT | 0.0153
ACATGTAA | 0.177
GTTGACTA | -0.0477
AAAGTAGG | 0.152
AGAGGCTG | -0.309
TAGGCCCA | -0.292
CTCAAACA | 0.0968

Sequence | PBM E-score
ACTGCCCG | -0.185
ATATCTGC | -0.121
ACGATAAA | 0.108
ACGTCCCT | -0.23
CCAAATCG | -0.112
CCTCAGAC | -0.0278
GGGGTACA | 0.0809
ACAATACC | 0.0386
AACAGGTG | -0.0708
AACTTTGG | 0.142
ATGTTGAG | 0.087
ACCACATC | -0.13
GCAATTCC | 0.0596
AGCAGTAC | -0.0557
CTCTCGTA | -0.107
ACCACGTC | -0.112
ACCGTGAT | -0.0336
ACCGGGTG | -0.178
ACCTGACG | -0.271
GCACCCCC | -0.282
AGCAACCT | -0.157
CTGACCAA | 0.0118
